Experimental data reported in PubChem BioAssay AID463173 (ICCB-Longwood Screening Facility, Harvard Medical School, 2010).
The whole screen tested about 52,000 compounds, of which about 4,300 (8.3%) were called active. Cut-off read from the data, not from the text of the source: active = survival mostly below about 52% (no sharp cut-off); inactive = mostly above about 56%. Some of the results follow.

System: DeltatarO mutant
Assay: S. aureus survival, RN4220 and DeltatarO strains – OD600, teichoic acid synthesis inhibitors, primary screen (AID 463173)
Conditions: S. aureus RN4220 wild type/DeltatarO growth, OD600, 18 h, stronger effect = lower value, screened at 18.75 µg/mL (by protocol)

Row | SMILES | survival
1 | COc1cccc(C(=O)Nc2ccccc2OCc2cc(=O)n3ccccc3n2)c1 | inactive: 97%
2 | Cc1noc(/C=C/c2cccs2)c1S(=O)(=O)N1CCC(C(=O)NCc2ccc(Cl)cc2)CC1 | inactive: 71%
3 | Cc1cccn2c(=O)c(/C=C(\C#N)c3nc4ccccc4s3)c(Oc3ccc(F)cc3)nc12 | inactive: 80%
4 | Cc1cc(N(CCO)Cc2ccccc2)n2nc(-c3ccc(C(C)(C)C)cc3)nc2n1 | inactive: 48%
5 | COc1cc(OC)c(NC(=O)c2cn(C3CCCC3)c(=O)c3c2c2ccccc2n3C)cc1Cl | inactive: 74%
6 | Cc1cc(C)c(S(=O)(=O)Nc2ccc3oc4c(c3c2)C(=O)CC(C)(C)C4)cc1C | inactive: 60%
7 | COc1ccc(-c2cnc(C)o2)cc1S(=O)(=O)Nc1ccc(F)cc1F | inactive: 112%
8 | CN(C)CCCNC(=O)C(=O)NCC(c1ccc2c(c1)OCO2)N1CCOCC1 (stereo not drawn) | inactive: 106%
9 | Cc1nc2nc(SCC(=O)Nc3ccccc3Cl)nn2c(C)c1Cc1ccccc1 | active: 20%
10 | COc1cc2c(cc1OC)C(COc1ccc(F)cc1)N(C(=O)c1cccc(F)c1)CC2 (stereo not drawn) | inactive: 67%
11 | CN1CCN(C(=O)Cn2ncc3c4ccccc4n(Cc4ccc(F)cc4)c3c2=O)CC1 | inactive: 78%
12 | O=C(c1ccc(Br)cc1)N(Cc1cccs1)c1ccc(F)cc1 | inactive: 61%
13 | Cn1c(=O)c2cc(C(=O)NC3CCCCCC3)sc2c2ccccc21 | inactive: 69%
14 | CCOc1ccc(CN2CCc3nc(N4CCN(c5ccccn5)CC4)ncc3C2)cc1OC | inactive: 120%
15 | O=C(Cn1ncc2c3ccccc3n(Cc3ccccc3)c2c1=O)NC1CCCCCC1 | inactive: 123%
16 | COc1ccc(NC(=O)C(CC(C)C)NC(=O)C2CCCCC2)cc1 (stereo not drawn) | inactive: 69%
17 | COc1ccc(-c2coc3c2c(C)cc2oc(=O)c(CC(=O)O)c(C)c23)cc1 | active: 42%
18 | COc1ccccc1CN1CCNC(=O)C1=O | inactive: 78%
19 | CCOc1ccc(/C=C(\C(=O)N2CCCC2)n2ccccc2=O)cc1 | inactive: 74%
20 | COc1ccc(N(Cc2nnc3n2CCCCC3)C(=O)Nc2cccc(C)c2)cc1Cl | inactive: 81%

Row | SMILES | survival
21 | Cc1ccc(NC(=O)CN2C(=O)COc3ccc(S(=O)(=O)NC4CCCC4)cc32)c(Cl)c1 | inactive: 75%
22 | CN(Cc1ccccc1)C1CCNCC1 | inactive: 90%
23 | Cc1ccc(NC(=O)Cn2c(=O)n(Cc3ccc4c(c3)OCO4)c(=O)c3ccccc32)cc1 | inactive: 86%
24 | COc1ccc(-c2cn3c(n2)sc2cc(C(=O)NCc4cccc(F)c4)ccc23)cc1 | inactive: 80%
25 | Cc1ccc(C(=O)c2cn(Cc3ccccc3C)c3nc(C)ccc3c2=O)cc1 | inactive: 80%
26 | Cc1ccccc1-c1cc2nccc(-c3cc(Cl)ccc3O)n2n1 | inactive: 69%
27 | CCCc1cnc2c(c1SCc1cccc(F)c1)c(=O)n(C)c(=O)n2C | inactive: 76%
28 | Cc1oc2c(cc(NS(=O)(=O)c3ccc(Cl)cc3)c3ccccc32)c1C(=O)OCc1ccccc1 | inactive: 52%
29 | CCCc1noc(-c2ccc(NCc3ccc(C)cc3)c([N+](=O)[O-])c2)n1 | inactive: 82%
30 | NC(=O)Nc1nc2cc(Cl)cc(Cl)c2[nH]c1=O | inactive: 96%
31 | COc1ccc(CNC(=O)Cc2csc3nc(-c4ccc(F)cc4)cn23)cc1 | inactive: 81%
32 | COc1ccc(N(Cc2cccs2)C(=O)Nc2cccc(Cl)c2)cc1 | inactive: 69%
33 | CCOC(=O)C1CCCN(S(=O)(=O)c2ccc3c(c2)oc(=O)n3C)C1 (stereo not drawn) | inactive: 96%
34 | COc1ccc(C2CC(=O)N(CC(=O)Nc3ccc(C)c(Cl)c3)c3ccccc3S2)cc1OC (stereo not drawn) | inactive: 88%
35 | CCOc1ccc(NC(=O)C(=O)NCC(c2cccnc2)N2CCc3ccccc32)cc1 (stereo not drawn) | inactive: 44%
36 | COc1ccc(-c2nc(SCC(=O)NC3CCCC3)c(-c3ccc(C)cc3)[nH]2)cc1OC | inactive: 57%
37 | Cc1c(C(=O)N2CCOCC2)sc(NC(=O)c2ccc3c(c2)OCO3)c1C#N | inactive: 90%
38 | Cc1ccccc1NC(=O)CCN1C(=O)c2ccccc2Sc2ncccc21 | inactive: 74%
39 | COc1cccc(NC(=O)CCc2c(C)nc3ncnn3c2C)c1 | inactive: 95%
40 | CCc1ccc(Nc2nnc(-n3nc(C)cc3C)c3ccccc23)cc1 | inactive: 121%

Row | SMILES | survival
41 | COc1ccc(CNC(=O)c2cnc3sc(N4CCCC4)nn3c2=O)c(OC)c1 | inactive: 70%
42 | CSc1ccccc1NC(=O)CCS(=O)(=O)c1nc(-c2cccs2)cc(C(F)(F)F)n1 | inactive: 79%
43 | Cc1ccc(NC(=O)CSc2nnc(-c3cc4occc4n3C)n2-c2ccccc2C)cc1F | inactive: 86%
44 | COc1ccc(C(=O)N=c2sc3cc(Cl)ccc3n2C)cc1 | inactive: 71%
45 | COC(=O)c1csc(N)n1 | inactive: 95%
46 | CCN(CC)CCOC(=O)c1ccc(NC(=O)CCn2c(=O)oc3ccccc32)cc1 | active: 45%
47 | Cc1ccc(-n2c(=O)c3sccc3n(Cc3cc(=O)n4ccccc4n3)c2=O)cc1 | active: 63%
48 | COc1ccc(C(=O)N2CCC(C(=O)Nc3ccc(OC)cc3OC)CC2)cc1 | inactive: 58%
49 | CCN(C(=O)Cn1nc(Cc2cccnc2)c2ccccc2c1=O)c1cc(C)ccc1C | inactive: 80%
50 | COc1cc(N(C(=O)Cn2nnc3ccccc32)C(C(=O)NCC2CCCO2)c2cccn2C)ccc1-n1cnnn1 (stereo not drawn) | inactive: 111%
51 | Cc1nnsc1C(=O)Oc1ccccc1Cl | inactive: 83%
52 | CCC(=O)N1CCc2cc(S(=O)(=O)NCCC(=O)Nc3cccc(C)c3C)ccc21 | inactive: 123%
53 | Cc1cc(SCC(=O)NCc2ccccc2)nc(=O)[nH]1 | inactive: 94%
54 | COc1cccc(CNc2ccc3c(c2)ncn3C)c1OC | inactive: 122%
55 | COc1ccc(OC)c(CCNC(=O)C(C)n2nc(C)c3c(C)n(-c4ccc(C)cc4)nc3c2=O)c1 (stereo not drawn) | inactive: 76%
56 | CCOc1ccccc1NC(=O)C1CCCN(S(=O)(=O)c2ccc3c(c2)CCCN3C(C)=O)C1 (stereo not drawn) | inactive: 55%
57 | O=C(NCc1ccccc1Br)c1ccc(-n2cnc3cccnc32)cc1 | inactive: 129%
58 | COc1ccc(N(CC(=O)Nc2ccc(Cl)cc2C)S(=O)(=O)c2ccccc2)c(OC)c1 | inactive: 113%
